Laboratory results reported in publication PMC10726135.
The list shows a part of the results. At the low end of the ranking, values are background and their order means little. The protein was read in a cell extract, so binding may be indirect.

Target: T1, HNF4alpha2 (COS-7 nuclear extract) (UniProt P41235)
T1 sequence: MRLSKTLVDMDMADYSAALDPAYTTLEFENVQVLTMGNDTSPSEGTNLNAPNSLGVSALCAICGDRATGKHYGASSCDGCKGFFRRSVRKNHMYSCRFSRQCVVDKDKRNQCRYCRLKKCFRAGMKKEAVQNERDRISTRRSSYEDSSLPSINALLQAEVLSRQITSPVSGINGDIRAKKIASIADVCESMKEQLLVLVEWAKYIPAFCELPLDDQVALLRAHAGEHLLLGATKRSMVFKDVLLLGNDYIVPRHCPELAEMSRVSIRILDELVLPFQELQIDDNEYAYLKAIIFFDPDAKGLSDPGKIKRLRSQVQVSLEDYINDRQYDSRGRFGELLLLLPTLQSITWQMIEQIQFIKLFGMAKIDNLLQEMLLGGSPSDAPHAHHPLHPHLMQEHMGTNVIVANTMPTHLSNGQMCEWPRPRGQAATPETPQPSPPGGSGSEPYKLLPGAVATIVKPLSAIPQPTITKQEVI
Experiment: protein-binding microarray
Details: COS-7 nuclear extract on double-stranded Agilent 4x180k PBM; binding buffer, salt, pH and temperature not given; high values mean tight binding; double strand, one strand shown; sequences stand for … in …GCCTAGGGAGATTAGAGTATCGGTCGA

Sequence	binding signal (log2 normalized intensity)
GCTTCCTGGAGAAATGTCCGCCTGGTGTTT	1.31
CTCTAGAGTGGTTGCCTGTGAGTCAGGTAC	1.43
CAGGCTCATTCTAACCCAAATGCAAATACC	0.932
GATACGGCCTGGACTCCAAGCCCCAAAAAC	1.45
GAGGTGTTCTCTGGGGTTAGCCAAACAAAT	1.03
AAATGAGTTTCATTAGACAGAAACCAAGCT	-1.17
TGGCCATGAAAGTATCCAGCTCCTCTTCAC	-1.1
CCCGGCAGATCAGGGTCAGGCTGTGGTACG	0.662
AAGTGCCCGGATAAACTTCCAGCCATTTTG	-0.955
TACTAATTTTGTTTCCTAGTTCAAACAGGC	0.0737
GGACTTCGAATGGTATGCTAGAGTACTTGG	1.23
CTCCAGAAATACAGAAGCTGCTCTAAGAAT	-0.86
CAGCGAAGCTGTGTCAGGCATTGTACTCAC	1.35
ATGCCTTAAGGGACCTCTTAGAAAAGTAGA	0.286
TGGATAGTGCCTTTTCTAATATCTACATGT	1.47
AGTCTAACCCAACTAAGAACACAGTCATTT	-0.997
AAGTCCAATCTTCTGGCCCCATCTATCTAG	1.52
CACCTCCTTTGACCTGGGAATTCAAGGAAT	0.614
TCCAGGCTTGGAGCCCCTTTGGAGGGGAAG	-1.04
TACTCACACTCAAGGCAAGAGAGTCATAAA	-1.02

Sequence	binding signal (log2 normalized intensity)
TTTCTCCAGTGCCCTTAGGGGCCGCATTGA	0.73
ACTGTTGCATCAAACAGCTTAGGGTTCAAA	1.64
AACAAGGTATGAGGCCAGTTTTCCTAAGGG	-1.1
GCTCCAGAGAGCCAGATGAAGCTGCAGCCT	-1.26
CAGGACACTTCTGAAAAAAATATTGAACAA	-0.256
ACAAAAAGCGGACAAACCAGTCCCATCTGT	-1.17
CAATGCAAATCCCAGAGTTCAAAGGCCAAA	4.3
TGAATGATCAAAGGTTGGTTTTTGGAGACA	2.92
AAATTACACTGGGAGGCAAATCTCTTGGTC	-0.205
CTTCAGCACCTTTTAAAATAGATAAGTCCC	0.338
TTGCCACATTTATTGTGAGATTACGTAAGT	1.68
ACCCACCAACAAAAGAAAGCCCATTAAATC	-1.12
GGATGAAGGAAGAGGGAAGACCAAAGGCCA	-1.11
TACACTCGCCGTGTGACTGAGGGCTGACAT	-0.964
AGCAACCAGAATGTTCAAAAGTGTGTTGGT	1.67
CTTTCAGAAGGGGACAAGCACATTAGGAGG	-1.12
CTCTGTGCTCCCAGTTCCCTCATTAGTAAC	1.33
AGCCTGCCTGCTCCTCCTCGTGAGTTGGAG	-1.06
ACATTCTTCAATATCAGTGGCACTCTCTGG	1.53
TCCCCTCCCAAGGCAGCAATCCCCTGCAAT	4.88
